About 100 (0.036%) of roughly 280,000 compounds were called active. Inconclusive means that the source gave no clear call. Such entries were picked first, then a sample of the others. The call rests on the fitted dose curve; in most records, active means well fitted inhibition curve with a large enough effect in the signal ratio, with a control signal flat (not every such curve was filed as active); inconclusive means small, poorly fitted or top-dose-only effect, or effect the other way, or a change in a side signal; inactive means no such curve, though single readings can be large or run the other way; the % refers to the signal ratio. Where the call is inconclusive, the potency comes from a doubtful curve fit. “Side channel” marks fits to a control or component signal instead of the main read-out.
Molecular target: Muscleblind-like protein 1 (Homo sapiens) (UniProt Q9NR56)
Sequence of UniProt Q9NR56 (Q9NR56 whole entry, looked up): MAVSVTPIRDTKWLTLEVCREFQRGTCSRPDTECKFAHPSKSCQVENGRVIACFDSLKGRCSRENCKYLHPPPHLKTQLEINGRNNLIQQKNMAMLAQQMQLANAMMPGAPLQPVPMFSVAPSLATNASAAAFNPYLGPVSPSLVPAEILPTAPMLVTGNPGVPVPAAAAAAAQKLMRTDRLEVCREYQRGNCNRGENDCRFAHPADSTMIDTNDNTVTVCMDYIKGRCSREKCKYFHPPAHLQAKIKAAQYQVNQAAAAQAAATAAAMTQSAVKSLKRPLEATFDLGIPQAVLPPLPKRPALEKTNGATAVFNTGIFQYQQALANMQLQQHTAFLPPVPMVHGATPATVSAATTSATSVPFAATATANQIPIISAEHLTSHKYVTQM
Assay: qHTS Assay for Inhibitors of MBNL1-poly(CUG) RNA binding
Settings: TR-FRET MBNL1-His/biotin-(CUG)12 binding, 665/545 ratio; series mostly up to 57.5 µM
Summary of the method: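 Compound titration spanned 92 nM–58 uM against the MBNL1-His/biotin-(CUG)12 complex. After 60 min at room temperature with 5 nM streptavidin-XL665 and 0.055 ng/ul terbium anti-His, ratiometric 665/545 nm emission (Ex 340 nm) normalized to controls.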
Potency means the concentration at half of the fitted maximal effect; tags describe the fitted curve by direction and shape or compound fluorescence and quenching.

Question: CC1C(=O)CCCCCCCCCC2C1(N1CCOCC1)CS2(=O)=O (configuration not stated) was tested. Which Potency did it give?
Answer: inconclusive: 6.31 µM [quencher, side channel, single point]

Question: How did the Potency turn out when CCN(C(=O)COC(=O)c1ccc(N2C(=O)c3ccccc3C2=O)cc1)C1CCS(=O)(=O)C1 (configuration not stated) was run?
Answer: inconclusive: 2.82 µM [quencher, full curve, poor fit]

Question: How did the Potency turn out when COc1ccc([N+](=O)[O-])cc1N(CC(=O)N1CCOCC1)S(C)(=O)=O was run?
Answer: inconclusive: 14.1 µM [quencher, side channel, partial curve]

Question: Which Potency does the source give for O=C(N/N=C\c1ccc2c(c1)OCO2)c1cncc(Br)c1 here?
Answer: inconclusive: 15.8 µM [quencher, side channel, partial curve]

Question: C=CCNC(=S)NNC(=O)c1cccn(Cc2ccc(Cl)cc2Cl)c1=O was tested. Which Potency did it give?
Answer: inactive

Question: With N#C/C(=C/c1ccc(O)c(O)c1)c1nc2ccccc2[nH]1 as the molecule, how does the Potency read?
Answer: inconclusive: 28.2 µM [quencher, side channel, partial curve]

Question: How did the Potency turn out when CCOC(=O)C1=C(C)N=c2s/c(=C\c3ccc(OCC(=O)O)cc3)c(=O)n2C1c1ccccc1OC (configuration not stated) was run?
Answer: inconclusive: 14.1 µM [quencher, side channel, partial curve]

Question: Which Potency does the source give for COC(=O)C(C)(C)ONC(=O)Nc1ccc([N+](=O)[O-])cc1 here?
Answer: inconclusive: 28.2 µM [quencher, side channel, single point]

Question: How did the Potency turn out when CCc1cc2c3c(c(=O)oc2cc1OCC(=O)OC)CCCC3 was run?
Answer: inactive

Question: Which Potency does the source give for N#C/C(=C\c1ccccc1)c1nc2ncccc2[nH]1 here?
Answer: inconclusive: 31.6 µM [quencher, side channel, single point]

Question: For COc1ccc(-c2cc(=O)oc3cc(OC(C)C(=O)NC4CC4)ccc23)cc1 (configuration not stated), which Potency is on record?
Answer: inconclusive: 0.355 µM [quencher, side channel, full curve]

Question: How did the Potency turn out when COc1ccc(COCC(O)CN2CCC(CN3C(=O)c4cccc5cccc(c45)C3=O)CC2)cc1OC (configuration not stated) was run?
Answer: inconclusive: 3.55 µM [quencher, side channel, partial curve]

Question: How did the Potency turn out when Cc1ccc(/C=C/C(=O)OCn2nnc3ccccc3c2=O)o1 was run?
Answer: inconclusive: 39.8 µM [quencher, side channel, single point]

Question: Cc1ccc(-c2cnc3cc(C)nn3c2)cc1 was tested. Which Potency did it give?
Answer: inconclusive: 20 µM [quencher, side channel, partial curve]

Question: For CC1(CCC(=O)N2CCCC(N3CCN(c4ccc(F)cc4)CC3)C2)CC1 (configuration not stated), which Potency is on record?
Answer: inactive

Question: Which Potency does the source give for CN(C)S(=O)(=O)c1cccc(COc2cccnc2[N+](=O)[O-])c1 here?
Answer: inconclusive: 14.1 µM [quencher, side channel, partial curve]

Question: For O=C(NCCN1CCCCCC1)C1CCN(S(=O)(=O)N2CCOCC2)CC1, which Potency is on record?
Answer: inconclusive: 2.51 µM [fluorescent, side channel, full curve, poor fit]

Question: How did the Potency turn out when O=c1[nH]c2ccccc2nc1C(Cl)c1ccccc1 (configuration not stated) was run?
Answer: inconclusive: 15.8 µM [quencher, side channel, partial curve]

Question: With O=C(O)c1cc([N+](=O)[O-])c(Nc2cccc3ccccc23)c([N+](=O)[O-])c1 as the molecule, how does the Potency read?
Answer: inconclusive: 25.1 µM [quencher, side channel, partial curve]

Question: With CN1CCC(OC(c2ccccc2)c2ccccc2)CC1 as the molecule, how does the Potency read?
Answer: inactive

Question: COc1cccc(C2NC(=O)c3sc(=S)n(-c4ccccc4)c3N2)c1 (configuration not stated) was tested. Which Potency did it give?
Answer: inconclusive: 28.2 µM [quencher, single point]

Question: With CSc1ccccc1NC(=O)c1ccccn1 as the molecule, how does the Potency read?
Answer: inconclusive: 35.5 µM [fluorescent, side channel, single point]

Question: How did the Potency turn out when CCCCSc1nnc(-c2ccc(OC)cc2)n1C was run?
Answer: inconclusive: 8.91 µM [quencher, side channel, single point]

Question: For O=C(Nc1ccc(Cl)c(Cl)c1)N1CCSC1c1ccco1 (configuration not stated), which Potency is on record?
Answer: inactive

Question: CCN1C(=O)c2cccc3c(N)ccc(c23)C1=O was tested. Which Potency did it give?
Answer: inconclusive: 12.6 µM [quencher, side channel, partial curve]

Question: N#C/C(=C(/O)C(Cl)(Cl)Cl)c1nc2ccccc2[nH]1 was tested. Which Potency did it give?
Answer: inactive

Question: With O=C(NCCCCNC(=O)c1ccc(F)cc1)c1ccc(F)cc1 as the molecule, how does the Potency read?
Answer: inactive

Question: How did the Potency turn out when Cc1cccc(-c2cnn(-c3cccc([N+](=O)[O-])c3)c2N)c1 was run?
Answer: inconclusive: 15.8 µM [quencher, side channel, partial curve]

Question: CN(CCOc1ccc(F)cc1)Cc1ccccc1 was tested. Which Potency did it give?
Answer: inconclusive: 4.47 µM [quencher, side channel, single point]

Question: Which Potency does the source give for Cc1ccc(OCCn2cc(/C=C3\C(=O)NN(c4ccccc4)C3=O)c3ccccc32)cc1 here?
Answer: inconclusive: 7.94 µM [quencher, side channel, single point]

Question: For Cc1ccc(C(=O)N2CCN(c3ccc(F)cc3)CC2)cc1S(=O)(=O)N1CCCCC1, which Potency is on record?
Answer: inactive

Question: Which Potency does the source give for O=[N+]([O-])c1ccc(C(=Nc2cccc3ccccc23)N2CCOCC2)cc1 here?
Answer: inconclusive: 28.2 µM [quencher, side channel, single point]

Question: Which Potency does the source give for Cc1ccc(-n2c(C)n[nH]c2=S)cc1C here?
Answer: inconclusive: 10 µM [fluorescent, side channel, partial curve]

Question: For CCOC(=O)c1sc(=S)n(-c2ccc(OC)cc2)c1C, which Potency is on record?
Answer: inconclusive: 15.8 µM [quencher, side channel, partial curve]

Question: With O=C(CN1CCC2(CC1)OCCO2)c1ccc2cc[nH]c2c1 as the molecule, how does the Potency read?
Answer: inactive

Question: For Cc1cccc(NC(=S)N/N=C2\CC(C)(C)Oc3ccc(O)cc32)c1, which Potency is on record?
Answer: inactive

Question: With O=C(O)Cn1nc2c3c(cccc3c1=O)-c1ccccc1-2 as the molecule, how does the Potency read?
Answer: inconclusive: 28.2 µM [quencher, side channel, partial curve]

Question: Which Potency does the source give for COc1cccc(CNCCNC(=O)c2nonc2N)c1 here?
Answer: inactive

Question: How did the Potency turn out when CC(Oc1ccccc1)C(=O)NNS(=O)(=O)c1ccc([N+](=O)[O-])cc1 (configuration not stated) was run?
Answer: inconclusive: 31.6 µM [quencher, side channel, partial curve, poor fit]

Question: Which Potency does the source give for Cc1ccc(SCc2nc(-c3cccnc3)no2)cc1 here?
Answer: inactive

Question: How did the Potency turn out when Cc1noc(C)c1CSc1ccc(Br)cc1 was run?
Answer: inactive

Question: For Cc1ccc(S(=O)(=O)Nc2cccnc2Oc2ccc(Cl)cc2)cc1, which Potency is on record?
Answer: inactive

Question: For CN1CCN(Cc2nc3cc(NC(=O)COc4ccc([N+](=O)[O-])cc4)ccc3n2C)CC1, which Potency is on record?
Answer: inconclusive: 10 µM [quencher, side channel, partial curve]

Question: For COc1ccc(CCNc2ccc(N3C(=O)CC(C)C3=O)cc2[N+](=O)[O-])cc1OC (configuration not stated), which Potency is on record?
Answer: inconclusive: 7.94 µM [quencher, side channel, partial curve]

Question: With O=C(Nc1ccc(-c2nc3cc(Cl)ccc3c(=O)o2)cc1)c1ccco1 as the molecule, how does the Potency read?
Answer: inconclusive: 0.398 µM [fluorescent, side channel, partial curve]

Question: Cc1cc(NC(=O)CSc2nc(-c3ccco3)cc(C(F)(F)F)n2)n(-c2ccccc2)n1 was tested. Which Potency did it give?
Answer: inconclusive: 0.631 µM [quencher, side channel, single point]

Question: Which Potency does the source give for CN(C)/C=C/C(=O)c1ccc([N+](=O)[O-])c(CS(=O)(=O)c2ccc(Cl)cc2)c1 here?
Answer: inconclusive: 35.5 µM [quencher, side channel, partial curve]

Question: For COc1ccccc1C1CC(c2cccs2)=NN1C(=O)CCC(=O)O (configuration not stated), which Potency is on record?
Answer: inconclusive: 28.2 µM [quencher, side channel, single point]

Question: How did the Potency turn out when O=C(Nc1ccc(N2CCOCC2)c([N+](=O)[O-])c1)c1ccco1 was run?
Answer: inconclusive: 14.1 µM [quencher, partial curve]

Question: Which Potency does the source give for Cc1ccc(NC(=O)c2cc(=O)c3ccccc3o2)c(C)c1 here?
Answer: inconclusive: 20 µM [quencher, side channel, partial curve]

Question: How did the Potency turn out when O=C1c2ccccc2NC(c2cnc3ccccc3n2)N1O (configuration not stated) was run?
Answer: inconclusive: 5.01 µM [quencher, side channel, partial curve]

Question: O=C(NNC(=O)C12CC3CC(CC(C3)C1)C2)c1cccc([N+](=O)[O-])c1 was tested. Which Potency did it give?
Answer: inconclusive: 14.1 µM [quencher, side channel, partial curve]

Question: Which Potency does the source give for N#CC1=C(N)Oc2n[nH]c(-c3cccnc3)c2C1c1ccc([N+](=O)[O-])o1 (configuration not stated) here?
Answer: inconclusive: 14.1 µM [quencher, side channel, partial curve]

Question: For CC(C(=O)NC(C)(C)C)N(C(=O)CS(=O)CC(=O)Nc1ccc(F)cc1)C1CCCC1 (configuration not stated), which Potency is on record?
Answer: inactive

Question: COC(=O)CCCC1=CC2=CC(=O)C(C)(OC(=O)c3cccs3)C(=O)C2=CN1CC1CC1 (configuration not stated) was tested. Which Potency did it give?
Answer: inconclusive: 17.8 µM [quencher, side channel, partial curve]

Question: How did the Potency turn out when CC(C)CC(NC(N)=O)C(=O)Nc1cccc([N+](=O)[O-])c1 (configuration not stated) was run?
Answer: inconclusive: 7.08 µM [quencher, side channel, partial curve]

Question: For O=C(CN1C(=O)CSc2ccc(S(=O)(=O)N3CCOCC3)cc21)N1CCCCC1, which Potency is on record?
Answer: inactive

Question: For CCOC(=O)c1cc2c(nc1N)CC(C)(C)OC2, which Potency is on record?
Answer: inactive

Question: For COc1cc(/C=C/C(=O)OCC(=O)N2CCc3ccccc3C2)ccc1O, which Potency is on record?
Answer: inconclusive: 17.8 µM [quencher, single point]

Question: For CN(C(=O)COC(=O)c1ccc2ccccc2n1)C1CCS(=O)(=O)C1 (configuration not stated), which Potency is on record?
Answer: inconclusive: 10 µM [quencher, side channel, partial curve]

Question: With O=C(/C=N/NC(=O)c1ccc(Cl)cc1Cl)c1ccccc1 as the molecule, how does the Potency read?
Answer: inconclusive: 35.5 µM [quencher, single point]

Question: Which Potency does the source give for COc1ccc2nc3oc(C(=O)NC4CCN(Cc5ccccc5)CC4)cc3cc2c1 here?
Answer: inconclusive: 3.55 µM [quencher, side channel, single point]

— PubChem BioAssay AID2675 (National Center for Advancing Translational Sciences (NCATS), 2010)
